Results taken from paper PMC3901232.
Results are given in words; binding and its absence hold for the method and conditions named. Binding seen in cells or lysates may run through a third protein. Some binding calls cover weakened binding; strength is not graded here. Sequences can lack the tags named with a protein.

Tests used:
Assay in all cases: cross-linking; in vivo, 0.3% paraformaldehyde for 20 min at 37 °C; PTS-positive cells (JKA12; also the dgsA deletion strain LJB17) grown with 0.2% glucose; membrane proteins solubilised with 2% Triton X-100; EIICB^Glc-His purified on Ni-NTA agarose; co-purified SgrT-3HA detected by Western blot
[1] = target: T1, EIICB^Glc-K382A-5His (E. coli K-12) (UniProt P69786)
T1 sequence: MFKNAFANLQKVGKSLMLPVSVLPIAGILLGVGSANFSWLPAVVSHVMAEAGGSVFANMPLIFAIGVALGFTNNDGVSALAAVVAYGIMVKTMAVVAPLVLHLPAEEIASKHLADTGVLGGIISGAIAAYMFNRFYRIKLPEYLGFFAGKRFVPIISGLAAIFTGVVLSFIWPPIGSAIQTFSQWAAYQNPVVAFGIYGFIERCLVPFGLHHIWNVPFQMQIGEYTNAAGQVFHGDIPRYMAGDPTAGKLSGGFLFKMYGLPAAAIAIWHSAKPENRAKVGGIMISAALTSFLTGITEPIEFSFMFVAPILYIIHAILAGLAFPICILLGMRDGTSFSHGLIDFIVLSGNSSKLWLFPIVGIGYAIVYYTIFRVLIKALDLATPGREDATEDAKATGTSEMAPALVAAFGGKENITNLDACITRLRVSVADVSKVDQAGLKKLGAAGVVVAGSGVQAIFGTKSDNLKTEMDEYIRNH

[2] = target: T2, EIICB^Glc-V12F-5His (E. coli K-12) (UniProt P69786)
T2 sequence: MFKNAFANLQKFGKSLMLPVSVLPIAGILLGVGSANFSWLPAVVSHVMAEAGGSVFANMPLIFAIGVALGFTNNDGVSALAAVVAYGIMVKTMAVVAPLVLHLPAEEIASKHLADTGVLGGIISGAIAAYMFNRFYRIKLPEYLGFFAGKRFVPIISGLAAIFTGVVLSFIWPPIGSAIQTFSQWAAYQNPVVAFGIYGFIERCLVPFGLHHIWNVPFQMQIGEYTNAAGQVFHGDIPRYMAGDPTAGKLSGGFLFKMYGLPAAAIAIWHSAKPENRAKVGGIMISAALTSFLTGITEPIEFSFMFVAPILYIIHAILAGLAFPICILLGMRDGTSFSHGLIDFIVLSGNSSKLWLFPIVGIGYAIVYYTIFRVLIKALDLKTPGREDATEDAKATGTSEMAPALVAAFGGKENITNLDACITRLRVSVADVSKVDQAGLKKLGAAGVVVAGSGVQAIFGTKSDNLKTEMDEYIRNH

[3] = target: T3, EIICB^Glc-5His (E. coli K-12) (UniProt P69786)
T3 sequence: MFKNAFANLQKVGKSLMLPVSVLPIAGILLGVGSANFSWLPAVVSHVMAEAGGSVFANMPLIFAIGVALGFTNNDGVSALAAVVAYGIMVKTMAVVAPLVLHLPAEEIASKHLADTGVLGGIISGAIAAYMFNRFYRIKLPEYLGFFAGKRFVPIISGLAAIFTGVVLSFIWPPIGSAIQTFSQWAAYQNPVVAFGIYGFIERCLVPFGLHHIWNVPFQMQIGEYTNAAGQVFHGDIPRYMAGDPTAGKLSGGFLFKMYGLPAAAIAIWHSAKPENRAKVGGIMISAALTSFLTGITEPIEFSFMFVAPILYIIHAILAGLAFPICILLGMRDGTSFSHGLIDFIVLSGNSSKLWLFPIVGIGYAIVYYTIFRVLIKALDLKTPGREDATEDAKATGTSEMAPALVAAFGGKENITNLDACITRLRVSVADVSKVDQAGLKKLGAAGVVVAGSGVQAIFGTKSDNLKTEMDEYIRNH

[4] = target: T4, EIICB^Glc-P384R-His (E. coli K-12) (UniProt P69786)
T4 sequence: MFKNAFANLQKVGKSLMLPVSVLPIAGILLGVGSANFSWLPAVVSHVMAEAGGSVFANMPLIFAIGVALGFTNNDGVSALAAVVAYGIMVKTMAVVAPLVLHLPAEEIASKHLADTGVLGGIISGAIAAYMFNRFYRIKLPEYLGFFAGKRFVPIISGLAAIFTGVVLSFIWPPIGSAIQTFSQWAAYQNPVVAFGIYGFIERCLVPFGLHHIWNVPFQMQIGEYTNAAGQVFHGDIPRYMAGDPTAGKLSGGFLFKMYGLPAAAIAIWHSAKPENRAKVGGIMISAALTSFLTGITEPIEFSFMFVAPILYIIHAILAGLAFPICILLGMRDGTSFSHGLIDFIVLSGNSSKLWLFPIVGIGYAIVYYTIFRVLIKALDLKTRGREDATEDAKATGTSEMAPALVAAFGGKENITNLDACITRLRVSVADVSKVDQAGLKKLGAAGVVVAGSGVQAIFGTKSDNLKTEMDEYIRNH

B1: SgrT-3HA (peptide, UniProt C1P5Z7 1-43)
chain: MRQFYQHYFTATAKLCWLRWLSVPQRLTMLEGLMQWDDRNSES
binding [1]: binds | binding [2]: binds | binding [3]: binds | binding [4]: no binding
